In PubChem BioAssay (NCATS):
The inconclusive results got no clear call from the source; some entries with a clear call stand among them for comparison. Potencies of inconclusive entries are doubtful fits and often do not repeat. The source made the active and inactive calls. Calls follow the shape of the dose curve; as a rule, active = well fitted inhibition curve with a large enough effect; inconclusive = small, poorly fitted or top-dose-only effect; inactive = no such curve, though single readings can be large or run the other way.

Assay: qHTS for Inhibitors of ATXN expression: Validation (AID 588378); also: nearly all actives have a fitted effect of over 75% in size
Details: cell-based ATXN2 expression reporter assay, luminescence; series mostly up to 57.1 µM
Text: Spinocerebellar ataxia type 2 (SCA2) is a multisystem neurodegenerative disease caused by a dominantly-acting mutation leading to expansion of a polyQ domain in the ataxin-2 protein (ATXN2). SCA2 patients develop progressive ataxia and later lose function in other neuronal systems. Prominent parkinsonian signs develop in some patients. Similar to many neurodegenerative disorders, no symptomatic or disease-modifying treatments are known.
The primary objective of project is to identify compounds inhibiting ATXN2 expression and to test them for efficacy in SCA2 mouse models. To this end, in a collaboration between Dr. Daniel Scoles and scientists at NCGC, a cell-based assay adapted to high-throughput screening has been developed to screen the NIH Molecular Libraries Small Molecule Repository (MLSMR).
NIH Chemical Genomics Center [NCGC]
NIH Molecular Libraries Probe Centers Network [MLPCN]
Assay Submitter (PI): Stefan Pulst and Daniel Scoles, University of Utah
4 ul of HEK293-ATXN2-FFLuc cell suspension (TBD cells/microL in phenol-red free DMEM) are dispensed into Greiner white solid bottom 1536-well assay plates, yielding a final well density of TBD cells/well. Plates are incubated for 2 hrs at 37 degrees C in 5% humidified CO2 to allow cell attachment. Compounds are then transferred via Kalypsys pin tool equipped with 1536-pin array (10nl slotted pins, V&P Scientific, San Diego, CA). In addition, duplicate serial dilutions of the control compounds ChemBridge 5553825, a previously identified ATXN2 expression inhibitor, and a known luciferase inhibitor, are pin-transferred. After incubation at 37 degrees C in 5% humidified CO2 for 24 hrs, CellTiter-Fluor reagent (1 ul) (Promega, Madison, WI) is then added and plates are incubated for 30 minutes, before being transferred to a ViewLux high-throughput CCD imager (PerkinElmer), wherein single end-point fluorescence measurements are acquired using the 405 nm excitation/525 nm emission filter set to assess cell viability. Next, Bright-Glo luciferase substrate detection reagent (3 ul) (Promega, Madison, WI) is added to each well and incubated for an additional 5 minutes. Luminescence is then measured on the ViewLux imager equipped with a clear emission filter using a 2 sec exposure.
Potency is read from the fitted curve at half-maximal effect; tags tell the direction and shape of the fitted curve.

| Compound | Potency |
| --- | --- |
| Brc1c(Br)c(Br)c2n[nH]nc2c1Br | active: 28.2 µM |
| CC(C)(C)c1cc(C=C(C#N)C#N)cc(C(C)(C)C)c1O | active: 0.631 µM |
| Oc1ccc2c3c1O[C@H]1c4oc5ccccc5c4C[C@@]4(O)C(C2)N(CC2CC2)CCC314 (stereo not given in full) | inconclusive: 20 µM [inhibitor, single point] |
| O=c1[nH]cc(F)c(=O)[nH]1 | inconclusive: 35.5 µM [inhibitor, partial curve, poor fit] |
| Cc1c2ccncc2c(C)c2c1[nH]c1ccccc12 | inconclusive: 10 µM [inhibitor, partial curve] |
| OCCN1CCN(CCCN2c3ccccc3Sc3ccc(C(F)(F)F)cc32)CC1 | inconclusive: 10 µM [inhibitor, partial curve, poor fit] |
| C[N+]1(C)C2CC(OC(=O)[C@H](CO)c3ccccc3)CC1C1OC12 (stereo not given in full) | inconclusive: 8.91 µM [inhibitor, single point] |
| NC(CCCCCP(=O)(O)O)C(=O)O (stereo not given) | inactive |
| O=[N+]([O-])/C=C/c1ccc2c(c1)OCO2 | active: 10 µM |
| NCCc1c[nH]c2ccc(O)cc12 | inactive |
| CN(C)C(=O)C(CCN1CCC(O)(c2ccc(Cl)cc2)CC1)(c1ccccc1)c1ccccc1 | inconclusive: 20 µM [inhibitor, partial curve, poor fit] |
| O=C1C=CC(=O)C=C1 | inactive |
| Ic1ccccc1CNC1C2CCN(CC2)C1C(c1ccccc1)c1ccccc1 (stereo not given) | active: 12.6 µM |
| CCCCCCC(C)(C)c1ccc([C@@H]2C[C@H](O)CC[C@H]2CCCO)c(O)c1 | inconclusive: 39.8 µM [inhibitor, single point] |
| CC(C)C(=O)Nc1ccc([N+](=O)[O-])c(C(F)(F)F)c1 | inconclusive: 20 µM [inhibitor, single point] |
| COc1ccc2[nH]c3c(c2c1)CCNC3 | inconclusive: 39.8 µM [inhibitor, single point] |
| CCCN1CCc2cc(O)cc3c2[C@H]1Cc1ccc(O)c(O)c1-3 | inconclusive: 25.1 µM [inhibitor, partial curve, poor fit] |
| C[N+]1(C)C2CCC1CC(OC(=O)c1c[nH]c3ccccc13)C2 (stereo not given) | inactive |
| COC(=O)C1=C(C)NC(C)=C(C(=O)OC)C1c1ccccc1[N+](=O)[O-] | active: 11.2 µM |
| CNCCC(Oc1ccc(C(F)(F)F)cc1)c1ccccc1 (stereo not given) | active: 14.1 µM |

| Compound | Potency |
| --- | --- |
| CNCC[C@H](Oc1ccc(C(F)(F)F)cc1)c1ccccc1 | active: 14.1 µM |
| NC(Cc1ccc(N(CCCl)CCCl)cc1)C(=O)O (stereo not given) | inconclusive: 3.98 µM [inhibitor, partial curve, poor fit] |
| Cc1cc(C(C)(C)C)cc(C)c1CC1=NCCN1 | inconclusive: 25.1 µM [inhibitor, single point] |
| COc1cc(OC)c(/C=C2/C(=O)Nc3ccccc32)c(OC)c1 | inconclusive: 10 µM [inhibitor, partial curve, poor fit] |
| CN1CCN(C2=Nc3cc(Cl)ccc3Nc3ccccc32)CC1 | inconclusive: 20 µM [inhibitor, partial curve] |
| Clc1ccc(C(c2ccc(Cl)cc2)n2cc[n+](CC(OCc3ccc(Cl)cc3Cl)c3ccc(Cl)cc3Cl)c2)cc1 (stereo not given) | inconclusive: 39.8 µM [inhibitor, single point] |
| CC1(C(=O)O)C2CCC(O2)C1(C)C(=O)O (stereo not given) | active: 7.94 µM |
| CCn1cnc2c(Nc3cccc(Cl)c3)nc(N[C@@H]3CCCC[C@@H]3N)nc21 | active: 2.51 µM |
| O=C1CC[C@@]2(O)C3Cc4ccc(O)c5c4C2(CCN3CC2CC2)[C@H]1O5 (stereo not given in full) | inactive |
| C[Se]C[C@H](N)C(=O)O | inconclusive: 20 µM [inhibitor, single point] |
| OCc1cnc[nH]1 | inactive |
| OC1(c2ccc(Cl)cc2)CCN(Cc2c[nH]c3ccccc23)CC1 | inconclusive: 20 µM [inhibitor, partial curve] |
| CN1CCC(c2c[nH]c3ccc(O)cc23)CC1 | inactive |
| O=[N+]([O-])c1ccc2nc(N3CCNCC3)ccc2c1 | inconclusive: 14.1 µM [inhibitor, partial curve] |
| C[C@@H]1O[C@H](C[N+](C)(C)C)C[C@H]1O | inactive |
| CN1C2CCC1CC(OC(=O)c1cc(Cl)cc(Cl)c1)C2 (stereo not given) | inconclusive: 17.8 µM [inhibitor, partial curve, poor fit] |
| CC[C@@H](CO)Nc1nc(NCc2ccccc2)c2ncn(C(C)C)c2n1 | active: 31.6 µM |
| CN(C)CCC=C1c2ccccc2CCc2ccccc21 | inconclusive: 12.6 µM [inhibitor, partial curve, poor fit] |
| Cc1sc2ccccc2c1CC1=NCCN1 | inconclusive: 39.8 µM [inhibitor, single point] |
| c1ccc2c(c1)[I+]c1ccccc1-2 | inconclusive: 20 µM [inhibitor, partial curve, poor fit] |
